In the supplement of paper PMC8728848:
This is one part of the list.

Experiments:
Assay in all cases: glycan array binding signal (z-score within array); higher = stronger binding
Conditions in all cases: glycan notation: IUPAC condensed, linker removed
Gal(b1-4)Glc = molecular target: Gal(b1-4)Glc
Method in brief: (§1)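 The binding signal is a Z-score computed within each array. Data were drawn from 3228 arrays in the Consortium for Functional Glycomics database, restricted to those with a known protein sequence. Scores were averaged over arrays of the same protein sequence at different concentrations or buffers, and over linkers, and negative values can be taken as non-binding.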

Gal(b1-4)Glc6S = molecular target: Gal(b1-4)Glc6S
Method in brief: as §1

Gal(b1-4)GlcNAc = molecular target: Gal(b1-4)GlcNAc
Method in brief: as §1

[1] = molecular target: Gal(b1-4)GlcNAc(a1-6)Gal(b1-4)GlcNAc
Method in brief: as §1

Gal(b1-4)GlcNAc(b1-2)Man = molecular target: Gal(b1-4)GlcNAc(b1-2)Man
Method in brief: as §1

[2] = molecular target: Gal(b1-4)GlcNAc(b1-2)Man(a1-3)Man(b1-4)GlcNAc(b1-4)GlcNAc
Method in brief: as §1

[3] = molecular target: Gal(b1-4)GlcNAc(b1-2)Man(a1-3)[Gal(b1-4)GlcNAc(b1-2)Man(a1-6)]Man(b1-4)GlcNAc(b1-4)GlcNAc
Method in brief: as §1

[4] = molecular target: Gal(b1-4)GlcNAc(b1-2)Man(a1-3)[Gal(b1-4)GlcNAc(b1-2)Man(a1-6)]Man(b1-4)GlcNAc(b1-4)[Fuc(a1-6)]GlcNAc
Method in brief: as §1

[5] = molecular target: Gal(b1-4)GlcNAc(b1-2)Man(a1-3)[Gal(b1-4)GlcNAc(b1-2)Man(a1-6)][Gal(b1-4)GlcNAc(b1-4)]Man(b1-4)GlcNAc(b1-4)[Fuc(a1-6)]GlcNAc
Method in brief: as §1

[6] = molecular target: Gal(b1-4)GlcNAc(b1-2)Man(a1-3)[Gal(b1-4)GlcNAc(b1-2)Man(a1-6)][GlcNAc(b1-4)]Man(b1-4)GlcNAc(b1-4)[Fuc(a1-6)]GlcNAc
Method in brief: as §1

[7] = molecular target: Gal(b1-4)GlcNAc(b1-2)Man(a1-3)[GlcNAc(b1-2)Man(a1-6)]Man(b1-4)GlcNAc(b1-4)GlcNAc
Method in brief: as §1

[8] = molecular target: Gal(b1-4)GlcNAc(b1-2)Man(a1-3)[GlcNAc(b1-4)][Gal(b1-4)GlcNAc(b1-2)Man(a1-6)]Man(b1-4)GlcNAc(b1-4)GlcNAc
Method in brief: as §1

[9] = molecular target: Gal(b1-4)GlcNAc(b1-2)Man(a1-3)[Man(a1-6)]Man(b1-4)GlcNAc(b1-4)GlcNAc
Method in brief: as §1

[10] = molecular target: Gal(b1-4)GlcNAc(b1-2)Man(a1-6)Man(b1-4)GlcNAc(b1-4)GlcNAc
Method in brief: as §1

[11] = molecular target: Gal(b1-4)GlcNAc(b1-2)Man(a1-6)[GlcNAc(b1-2)Man(a1-3)]Man(b1-4)GlcNAc(b1-4)GlcNAc
Method in brief: as §1

[12] = molecular target: Gal(b1-4)GlcNAc(b1-2)Man(a1-6)[Man(a1-3)]Man(b1-4)GlcNAc(b1-4)GlcNAc
Method in brief: as §1

[13] = molecular target: Gal(b1-4)GlcNAc(b1-2)[Gal(b1-4)GlcNAc(b1-4)]Man(a1-3)[Gal(b1-4)GlcNAc(b1-2)Man(a1-6)]Man(b1-4)GlcNAc(b1-4)GlcNAc
Method in brief: as §1

[14] = molecular target: Gal(b1-4)GlcNAc(b1-2)[Gal(b1-4)GlcNAc(b1-4)]Man(a1-3)[Gal(b1-4)GlcNAc(b1-2)[Gal(b1-4)GlcNAc(b1-6)]Man(a1-6)]Man(b1-4)GlcNAc(b1-4)GlcNAc
Method in brief: as §1

B1: PX9961T-pdi-555-33-555 (Parabacteroides distasonis) (protein)
chain: FDEETAFQSPTLVYVNTVASLYNNMFKIMGNDRHVYDLNTFSSDEAMLPCRIGDWEDGGLWQNIFLHRWGTMNDLTKNSWDFLYEQIGKCNQSVDKLQAFAEEQPDVEYFKVYLEEVRAVRAFFYYELLDLFARVPLVTSSTTPMSEVKQSERSVVFNFVRSELEEALPYLSDNRSNQKGEYYGRITKPVAYMILAKLALNAEVYADDNWTDGNRPAGKNIKFTVDGKEMNAWEATIAYVDKLEALGYKLQGNFSENFAVANETSVENIFTVPMDPVAYPDAKDYNLVRTRHYDHATAYGQSGWNGSCATVKAMNVFKFGTADEDPRCKLTYFTGEVTGPDGKTIYTEWDGQKVPLKYEPNAPKVYMDASDGLLVKTAGARMAKYEFDQNAQDGGNLHGNDCVIFRFADALLMKAEAKIRLGQNGDDEVNQVRNRVGAKPLQNVTLDTLLDERMLELAWEGVRRQDLIRFGKFTEATVDRYVGVKHFASSLDYQEDKTGYTTVFSIYADILSLNPNLTQNPGY
Gal(b1-4)Glc
  glycan array binding signal (z-score): -0.268
Gal(b1-4)Glc6S
  glycan array binding signal (z-score): -0.444
Gal(b1-4)GlcNAc
  glycan array binding signal (z-score): -0.332
[1]
  glycan array binding signal (z-score): -0.188
Gal(b1-4)GlcNAc(b1-2)Man
  glycan array binding signal (z-score): -0.096
[2]
  glycan array binding signal (z-score): -0.441
[3]
  glycan array binding signal (z-score): 0.254
[4]
  glycan array binding signal (z-score): 0.171
[5]
  glycan array binding signal (z-score): -0.228
[6]
  glycan array binding signal (z-score): 0.434
[7]
  glycan array binding signal (z-score): 0.627
[8]
  glycan array binding signal (z-score): 1.19
[9]
  glycan array binding signal (z-score): 0.642
[10]
  glycan array binding signal (z-score): 0.047
[11]
  glycan array binding signal (z-score): -0.306
[12]
  glycan array binding signal (z-score): -0.664
[13]
  glycan array binding signal (z-score): -0.487
[14]
  glycan array binding signal (z-score): -0.253
